For some assays here: The strong results were mostly taken out for another list; the other results follow. This is a selection; strong and weak results do not stand in their true shares.
Experiments:
[1] = molecular target: Death-associated protein kinase 1 (Homo sapiens) (UniProt P53355); conditions: at 1 µM;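 further: each value is a mean inhibition figure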
[2] = molecular target: T1, Serine/threonine-protein kinase DCLK2 (Homo sapiens) (UniProt Q8N568); conditions: at 0.1 µM
T1 sequence (whole entry): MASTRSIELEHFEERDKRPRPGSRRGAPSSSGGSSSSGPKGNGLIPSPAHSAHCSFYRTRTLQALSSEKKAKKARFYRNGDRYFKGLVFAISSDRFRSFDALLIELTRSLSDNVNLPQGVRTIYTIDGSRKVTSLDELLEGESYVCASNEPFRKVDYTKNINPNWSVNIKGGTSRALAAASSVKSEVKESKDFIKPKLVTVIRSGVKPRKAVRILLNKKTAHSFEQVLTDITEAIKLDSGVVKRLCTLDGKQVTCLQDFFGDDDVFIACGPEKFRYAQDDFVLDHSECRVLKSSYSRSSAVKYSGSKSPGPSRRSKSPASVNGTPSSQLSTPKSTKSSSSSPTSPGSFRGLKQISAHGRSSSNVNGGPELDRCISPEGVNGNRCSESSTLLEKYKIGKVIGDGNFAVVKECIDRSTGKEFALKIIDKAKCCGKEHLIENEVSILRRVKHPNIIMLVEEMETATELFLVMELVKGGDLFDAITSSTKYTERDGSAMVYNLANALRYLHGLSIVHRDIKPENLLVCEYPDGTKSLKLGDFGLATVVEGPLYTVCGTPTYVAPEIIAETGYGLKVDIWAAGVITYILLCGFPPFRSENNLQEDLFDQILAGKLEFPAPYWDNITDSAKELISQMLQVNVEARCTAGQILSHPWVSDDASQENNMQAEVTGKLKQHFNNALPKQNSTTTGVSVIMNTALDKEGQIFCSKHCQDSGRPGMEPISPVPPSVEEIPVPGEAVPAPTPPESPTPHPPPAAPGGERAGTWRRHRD

[3] = molecular target: T1, Serine/threonine-protein kinase DCLK2 (Homo sapiens); conditions: at 1 µM
[4] = molecular target: MAP kinase-activated protein kinase 2 (Homo sapiens) (UniProt P49137); conditions: at 0.1 µM
UniProt P49137, sequence (P49137 whole entry, looked up): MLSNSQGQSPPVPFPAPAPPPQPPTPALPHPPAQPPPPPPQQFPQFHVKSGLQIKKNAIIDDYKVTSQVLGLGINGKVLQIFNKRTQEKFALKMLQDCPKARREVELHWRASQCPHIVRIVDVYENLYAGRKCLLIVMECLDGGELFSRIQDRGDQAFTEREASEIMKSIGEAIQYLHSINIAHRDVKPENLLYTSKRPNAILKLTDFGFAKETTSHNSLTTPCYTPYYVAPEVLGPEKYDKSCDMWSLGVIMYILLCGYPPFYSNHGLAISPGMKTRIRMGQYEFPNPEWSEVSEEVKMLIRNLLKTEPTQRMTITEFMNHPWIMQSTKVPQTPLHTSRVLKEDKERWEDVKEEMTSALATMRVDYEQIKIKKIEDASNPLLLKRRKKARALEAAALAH

[5] = molecular target: MAP kinase-activated protein kinase 2 (Homo sapiens) (UniProt P49137); conditions: at 1 µM
[6] = molecular target: MAP kinase-activated protein kinase 3 (Homo sapiens) (UniProt Q16644); conditions: at 0.1 µM
UniProt Q16644, sequence (Q16644 whole entry, looked up): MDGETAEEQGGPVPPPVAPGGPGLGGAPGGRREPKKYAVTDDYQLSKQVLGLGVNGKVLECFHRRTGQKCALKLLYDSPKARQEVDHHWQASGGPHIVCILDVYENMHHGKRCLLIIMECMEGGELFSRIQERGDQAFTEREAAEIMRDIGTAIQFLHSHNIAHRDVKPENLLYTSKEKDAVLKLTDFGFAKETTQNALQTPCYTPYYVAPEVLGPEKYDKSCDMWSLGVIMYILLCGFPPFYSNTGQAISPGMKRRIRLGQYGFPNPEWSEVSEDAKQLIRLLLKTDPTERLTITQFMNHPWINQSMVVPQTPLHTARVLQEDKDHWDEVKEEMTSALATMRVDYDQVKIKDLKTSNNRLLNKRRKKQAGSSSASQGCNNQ

[7] = molecular target: MAP kinase-activated protein kinase 3 (Homo sapiens) (UniProt Q16644); conditions: at 1 µM
[8] = molecular target: MAP/microtubule affinity-regulating kinase 3 (Homo sapiens) (UniProt P27448); conditions: at 0.1 µM
UniProt P27448, sequence (P27448 whole entry, looked up): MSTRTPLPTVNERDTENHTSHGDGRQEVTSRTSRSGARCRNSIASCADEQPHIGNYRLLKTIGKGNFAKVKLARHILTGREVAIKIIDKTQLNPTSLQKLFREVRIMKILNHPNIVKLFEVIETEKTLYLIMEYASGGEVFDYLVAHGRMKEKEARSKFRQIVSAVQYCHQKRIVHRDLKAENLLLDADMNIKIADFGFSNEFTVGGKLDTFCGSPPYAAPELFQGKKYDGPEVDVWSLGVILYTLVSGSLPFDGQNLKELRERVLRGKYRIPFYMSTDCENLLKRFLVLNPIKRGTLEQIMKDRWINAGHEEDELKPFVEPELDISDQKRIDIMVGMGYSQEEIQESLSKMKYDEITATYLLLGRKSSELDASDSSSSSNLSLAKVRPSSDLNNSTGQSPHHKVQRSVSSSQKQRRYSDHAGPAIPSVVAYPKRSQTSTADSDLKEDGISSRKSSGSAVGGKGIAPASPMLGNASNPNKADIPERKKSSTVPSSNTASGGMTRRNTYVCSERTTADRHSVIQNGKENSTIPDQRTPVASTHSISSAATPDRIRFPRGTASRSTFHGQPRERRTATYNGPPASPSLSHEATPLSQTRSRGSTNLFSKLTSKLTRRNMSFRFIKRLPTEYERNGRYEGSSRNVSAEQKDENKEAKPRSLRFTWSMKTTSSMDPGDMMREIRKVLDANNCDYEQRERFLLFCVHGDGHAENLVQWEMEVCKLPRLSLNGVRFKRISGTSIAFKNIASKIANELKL

[9] = molecular target: MAP/microtubule affinity-regulating kinase 3 (Homo sapiens) (UniProt P27448); conditions: at 1 µM
[10] = molecular target: T2, MAP/microtubule affinity-regulating kinase 4 (Homo sapiens) (UniProt Q96L34); conditions: at 0.1 µM
T2 sequence (whole entry): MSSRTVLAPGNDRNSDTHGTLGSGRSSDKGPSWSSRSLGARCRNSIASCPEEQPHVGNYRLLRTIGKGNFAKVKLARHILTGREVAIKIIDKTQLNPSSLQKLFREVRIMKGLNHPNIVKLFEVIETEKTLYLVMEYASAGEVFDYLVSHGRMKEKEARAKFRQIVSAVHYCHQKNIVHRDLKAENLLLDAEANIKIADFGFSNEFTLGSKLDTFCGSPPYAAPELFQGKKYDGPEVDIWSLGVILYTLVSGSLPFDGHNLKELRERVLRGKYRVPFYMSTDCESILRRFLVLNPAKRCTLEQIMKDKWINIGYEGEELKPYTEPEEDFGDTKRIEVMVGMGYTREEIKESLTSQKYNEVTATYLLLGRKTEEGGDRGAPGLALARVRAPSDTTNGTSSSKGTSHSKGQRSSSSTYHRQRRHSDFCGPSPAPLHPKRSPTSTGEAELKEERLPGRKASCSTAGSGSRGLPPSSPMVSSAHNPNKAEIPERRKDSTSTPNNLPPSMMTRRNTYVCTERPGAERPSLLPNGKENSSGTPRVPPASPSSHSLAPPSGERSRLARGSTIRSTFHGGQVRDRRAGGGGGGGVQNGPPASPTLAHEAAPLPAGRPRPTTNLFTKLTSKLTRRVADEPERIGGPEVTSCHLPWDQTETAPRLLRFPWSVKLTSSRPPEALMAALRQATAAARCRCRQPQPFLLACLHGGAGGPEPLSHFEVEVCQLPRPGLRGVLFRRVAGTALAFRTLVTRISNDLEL

[11] = molecular target: T2, MAP/microtubule affinity-regulating kinase 4 (Homo sapiens); conditions: at 1 µM
[12] = molecular target: Maternal embryonic leucine zipper kinase (Homo sapiens) (UniProt Q14680); conditions: at 0.1 µM
UniProt Q14680, sequence (Q14680 whole entry, looked up): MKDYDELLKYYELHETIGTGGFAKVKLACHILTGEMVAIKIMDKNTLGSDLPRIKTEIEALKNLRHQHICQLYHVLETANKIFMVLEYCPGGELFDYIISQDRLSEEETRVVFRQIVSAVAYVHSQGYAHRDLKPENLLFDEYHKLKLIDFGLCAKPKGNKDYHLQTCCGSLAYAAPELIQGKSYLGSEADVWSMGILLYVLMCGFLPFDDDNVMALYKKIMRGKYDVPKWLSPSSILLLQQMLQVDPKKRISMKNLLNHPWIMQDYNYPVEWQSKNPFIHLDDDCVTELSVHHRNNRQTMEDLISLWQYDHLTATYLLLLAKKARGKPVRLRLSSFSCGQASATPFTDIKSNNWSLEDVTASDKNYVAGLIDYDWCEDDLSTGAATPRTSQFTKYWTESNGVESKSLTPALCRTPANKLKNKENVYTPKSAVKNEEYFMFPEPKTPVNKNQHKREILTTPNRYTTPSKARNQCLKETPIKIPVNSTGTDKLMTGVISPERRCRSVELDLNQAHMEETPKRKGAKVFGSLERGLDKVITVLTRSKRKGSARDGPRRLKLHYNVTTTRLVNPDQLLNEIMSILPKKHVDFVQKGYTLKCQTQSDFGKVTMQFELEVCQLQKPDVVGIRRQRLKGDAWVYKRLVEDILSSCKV

[13] = molecular target: Maternal embryonic leucine zipper kinase (Homo sapiens) (UniProt Q14680); conditions: at 1 µM
[14] = molecular target: MAP kinase-interacting serine/threonine-protein kinase 1 (Homo sapiens) (UniProt Q9BUB5); conditions: at 0.1 µM
UniProt Q9BUB5, sequence (Q9BUB5 whole entry, looked up): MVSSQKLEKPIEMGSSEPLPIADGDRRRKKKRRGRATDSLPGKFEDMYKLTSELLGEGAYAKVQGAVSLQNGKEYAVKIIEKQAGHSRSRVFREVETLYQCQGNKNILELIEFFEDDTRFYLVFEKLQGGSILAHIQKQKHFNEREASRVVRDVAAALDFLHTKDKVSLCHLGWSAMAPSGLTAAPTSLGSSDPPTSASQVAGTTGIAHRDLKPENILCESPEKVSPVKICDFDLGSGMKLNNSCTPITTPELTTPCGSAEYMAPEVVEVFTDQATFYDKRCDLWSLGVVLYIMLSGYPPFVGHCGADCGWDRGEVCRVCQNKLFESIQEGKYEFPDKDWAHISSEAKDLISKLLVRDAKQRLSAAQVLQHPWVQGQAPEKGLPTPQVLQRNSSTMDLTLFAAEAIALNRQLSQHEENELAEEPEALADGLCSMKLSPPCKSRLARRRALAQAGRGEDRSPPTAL

[15] = molecular target: MAP kinase-interacting serine/threonine-protein kinase 1 (Homo sapiens) (UniProt Q9BUB5); conditions: at 1 µM
[16] = molecular target: MAP kinase-interacting serine/threonine-protein kinase 2 (Homo sapiens) (UniProt Q9HBH9); conditions: at 1 µM
[17] = molecular target: T3, Serine/threonine-protein kinase MARK2 (Homo sapiens) (UniProt Q7KZI7); conditions: at 0.1 µM;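 further: mean percent inhibition of PAR-1Balpha kinase activity, reported from the GSK PKIS screen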
T3 sequence (whole entry): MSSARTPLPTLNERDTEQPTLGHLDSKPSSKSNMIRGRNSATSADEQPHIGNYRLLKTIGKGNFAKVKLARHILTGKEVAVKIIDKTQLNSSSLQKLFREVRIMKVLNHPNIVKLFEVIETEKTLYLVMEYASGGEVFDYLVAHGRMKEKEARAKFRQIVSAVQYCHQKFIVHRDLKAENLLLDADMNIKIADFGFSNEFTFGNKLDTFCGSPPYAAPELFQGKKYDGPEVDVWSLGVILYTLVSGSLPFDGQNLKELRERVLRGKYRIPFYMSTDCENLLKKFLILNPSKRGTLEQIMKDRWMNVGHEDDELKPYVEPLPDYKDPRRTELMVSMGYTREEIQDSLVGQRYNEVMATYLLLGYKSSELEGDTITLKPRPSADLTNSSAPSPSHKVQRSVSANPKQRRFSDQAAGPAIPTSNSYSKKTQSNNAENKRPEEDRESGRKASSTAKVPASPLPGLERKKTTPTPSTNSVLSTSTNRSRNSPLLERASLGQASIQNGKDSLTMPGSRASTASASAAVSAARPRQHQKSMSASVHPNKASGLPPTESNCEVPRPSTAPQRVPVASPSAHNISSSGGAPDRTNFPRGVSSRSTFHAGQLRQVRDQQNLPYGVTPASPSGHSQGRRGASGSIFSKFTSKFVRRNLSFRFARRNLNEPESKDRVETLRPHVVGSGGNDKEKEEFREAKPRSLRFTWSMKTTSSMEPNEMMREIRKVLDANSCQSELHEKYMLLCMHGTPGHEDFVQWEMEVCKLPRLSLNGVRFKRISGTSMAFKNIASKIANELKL

[18] = molecular target: Serine/threonine-protein kinase MARK1 (Homo sapiens) (UniProt Q9P0L2); conditions: at 0.1 µM
UniProt Q9P0L2, sequence (Q9P0L2 whole entry, looked up): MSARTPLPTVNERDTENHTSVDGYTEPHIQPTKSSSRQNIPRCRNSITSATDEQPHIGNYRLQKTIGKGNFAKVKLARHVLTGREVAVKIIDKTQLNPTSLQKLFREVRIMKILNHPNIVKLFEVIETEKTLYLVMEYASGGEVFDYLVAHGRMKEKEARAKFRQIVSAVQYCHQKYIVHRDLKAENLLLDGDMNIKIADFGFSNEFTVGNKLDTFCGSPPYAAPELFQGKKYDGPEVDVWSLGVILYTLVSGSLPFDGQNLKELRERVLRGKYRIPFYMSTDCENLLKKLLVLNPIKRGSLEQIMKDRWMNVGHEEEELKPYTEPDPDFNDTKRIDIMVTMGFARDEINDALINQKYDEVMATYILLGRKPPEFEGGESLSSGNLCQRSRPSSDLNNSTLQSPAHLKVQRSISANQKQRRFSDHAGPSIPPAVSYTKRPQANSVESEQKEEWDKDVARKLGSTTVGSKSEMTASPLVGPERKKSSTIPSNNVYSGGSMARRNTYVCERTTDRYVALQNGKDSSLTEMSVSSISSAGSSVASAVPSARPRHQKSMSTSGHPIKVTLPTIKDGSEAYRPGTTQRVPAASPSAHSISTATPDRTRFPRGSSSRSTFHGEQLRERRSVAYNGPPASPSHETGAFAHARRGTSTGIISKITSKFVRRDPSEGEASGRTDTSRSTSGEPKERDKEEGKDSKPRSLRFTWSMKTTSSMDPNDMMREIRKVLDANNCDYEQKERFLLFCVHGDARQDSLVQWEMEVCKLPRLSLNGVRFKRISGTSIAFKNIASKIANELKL

[19] = molecular target: Serine/threonine-protein kinase MARK1 (Homo sapiens) (UniProt Q9P0L2); conditions: at 1 µM
[20] = molecular target: MAP kinase-interacting serine/threonine-protein kinase 2 (Homo sapiens) (UniProt Q9HBH9); conditions: at 0.1 µM

UniProt P53355, sequence (P53355 whole entry, looked up): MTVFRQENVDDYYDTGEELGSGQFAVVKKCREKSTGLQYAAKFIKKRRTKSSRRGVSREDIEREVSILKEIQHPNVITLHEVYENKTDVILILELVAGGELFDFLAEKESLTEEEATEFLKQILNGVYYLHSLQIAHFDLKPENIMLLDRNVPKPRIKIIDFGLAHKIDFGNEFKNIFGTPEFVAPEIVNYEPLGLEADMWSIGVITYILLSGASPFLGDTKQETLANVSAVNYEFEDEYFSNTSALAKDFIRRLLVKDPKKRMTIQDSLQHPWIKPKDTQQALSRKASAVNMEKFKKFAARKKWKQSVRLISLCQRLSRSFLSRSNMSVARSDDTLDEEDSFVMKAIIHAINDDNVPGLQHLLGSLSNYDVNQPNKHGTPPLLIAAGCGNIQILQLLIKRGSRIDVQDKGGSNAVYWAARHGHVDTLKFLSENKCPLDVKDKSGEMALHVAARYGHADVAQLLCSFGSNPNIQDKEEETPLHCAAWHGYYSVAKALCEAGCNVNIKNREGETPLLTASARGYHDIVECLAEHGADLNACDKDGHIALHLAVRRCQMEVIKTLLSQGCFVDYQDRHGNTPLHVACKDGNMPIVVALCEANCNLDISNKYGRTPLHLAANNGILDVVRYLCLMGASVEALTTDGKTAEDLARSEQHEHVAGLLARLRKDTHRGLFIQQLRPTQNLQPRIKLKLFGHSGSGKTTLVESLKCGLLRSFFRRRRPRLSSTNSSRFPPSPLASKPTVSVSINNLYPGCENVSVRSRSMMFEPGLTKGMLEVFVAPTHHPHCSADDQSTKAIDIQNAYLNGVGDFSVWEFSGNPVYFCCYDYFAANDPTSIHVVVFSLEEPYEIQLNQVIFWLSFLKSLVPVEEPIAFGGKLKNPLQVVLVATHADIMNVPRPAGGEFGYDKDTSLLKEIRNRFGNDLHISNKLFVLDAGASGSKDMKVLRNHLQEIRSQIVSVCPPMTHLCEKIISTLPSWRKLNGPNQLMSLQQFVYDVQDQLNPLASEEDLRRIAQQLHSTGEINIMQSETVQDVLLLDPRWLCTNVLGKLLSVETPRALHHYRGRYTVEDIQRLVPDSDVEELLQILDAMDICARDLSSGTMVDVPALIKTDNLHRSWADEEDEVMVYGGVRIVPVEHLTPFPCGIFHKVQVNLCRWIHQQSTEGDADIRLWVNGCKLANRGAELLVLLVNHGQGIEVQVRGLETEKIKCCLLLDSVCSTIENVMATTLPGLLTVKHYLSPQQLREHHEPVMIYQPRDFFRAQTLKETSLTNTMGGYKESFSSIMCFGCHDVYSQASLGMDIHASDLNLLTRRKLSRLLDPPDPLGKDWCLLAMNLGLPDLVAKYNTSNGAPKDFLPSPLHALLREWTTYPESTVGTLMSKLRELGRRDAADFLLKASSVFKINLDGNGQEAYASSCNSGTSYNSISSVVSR

| Compound | inhibition [1] | inhibition [2] | inhibition [3] | inhibition [4] | inhibition [5] | inhibition [6] | inhibition [7] | inhibition [8] | inhibition [9] | inhibition [10] | inhibition [11] | inhibition [12] | inhibition [13] | inhibition [14] | inhibition [15] | inhibition [16] | inhibition [17] | inhibition [18] | inhibition [19] | inhibition [20] |
| --- | --- | --- | --- | --- | --- | --- | --- | --- | --- | --- | --- | --- | --- | --- | --- | --- | --- | --- | --- | --- |
| COc1ccccc1Oc1nccc(-c2c(-c3ccc(F)cc3)ncn2C2CCNCC2)n1 | -5.02% | 1.98% | 1.2% | -0.91% | -1.38% | 29.7% | 30.9% | 1.99% | 8.11% | 3.03% | 6.36% | 6.61% | 7.7% | 3.93% | 6.48% | 3.83% | 1.73% |  |  |  |
| CC(C)(C)c1ccc(Oc2nccc(-c3c(-c4ccc(F)cc4)ncn3C3CCNCC3)n2)cc1 | -2.5% | 0.28% | 1.27% | 1.56% | 0.83% | 33.8% | 36.2% | 0.67% | 0.9% | 1.46% | 3.82% | 2.02% | 10% | 2.19% | 3.63% | 1.27% | -3% | 1.44% | 5.2% | 0.17% |
| Fc1ccc(Oc2nccc(-c3c(-c4ccc(F)cc4)ncn3C3CCNCC3)n2)cc1 | 3.27% | -3.47% | -0.14% | 1.74% | 4.04% | 23.1% | 36% | 1.87% | 2.38% | 2.08% | 1.09% | 7.41% | 11.7% | 1.88% | 1.54% | 2.64% | 1.92% | 1.42% | 1.49% | 2.38% |
| Fc1ccc(-c2ncn(C3CCNCC3)c2-c2ccnc(Oc3cccc(F)c3)n2)cc1 | -5.12% | 0.92% | 1.85% | -0.26% | 0.16% | 22.8% | 28.5% | 2.73% | 2.96% | 1.49% | 2.54% | 6.14% | 8.59% | 3.77% | 8.14% | 6.08% | 1.88% | 2.03% | 4.83% | 2.53% |
| COc1ccccc1C1=C(Nc2ccccc2)C(=O)NC1=O | -4.37% | -0.44% | 3.12% | -1.03% | -1.51% | -1.88% | 0.18% | 6.52% | 28.3% | 2.24% | 13.2% | 3.75% | 2.36% | 2.43% | 8.76% | 5.14% | -0.33% | 3.1% | 15.2% | 1.34% |
| O=C1NC(=O)C(c2ccccc2)=C1Nc1ccccc1 | -2.71% | 0.98% | 0.16% | 0.27% | 0.09% | 0.14% | -0.05% | 2.73% | 10.4% | 4.04% | 4.27% | 4.35% | 6.7% | 7.14% | 17.3% | 8.75% | 0.17% | 4.41% | 9.02% | 2.31% |
| CS(=O)(=O)c1ccc(Oc2nccc(-c3c(-c4ccc(F)cc4)ncn3C3CCNCC3)n2)cc1 | -0.74% | 4.13% | 1.66% | 2.08% | 0.58% | 11.4% | 27.6% | 1.71% | 1.04% | 2.08% | 2.71% | 2.75% | 5.71% | 2.85% | 3.29% | -2.48% | -2.4% | 1.44% | 1.65% | -0.37% |
| NC(=O)CCc1ccccc1Oc1nccc(-c2c(-c3ccc(F)cc3)ncn2C2CCNCC2)n1 | 1.27% | -1.23% | -2.17% | -2.03% | -1.25% | 23.2% | 34% | -0.53% | -0.22% | 1.7% | 1.06% | -0.36% | 1.03% | -0.54% | -1.06% | -1.03% | 0.46% | 1.38% | 0.03% | -1.56% |
| Fc1ccc(-c2ncn(C3CCNCC3)c2-c2ccnc(Oc3cccc(C(F)(F)F)c3)n2)cc1 | 7.45% | 0.49% | 3.67% | 1.76% | 1.85% | 14.7% | 28.9% | 3.1% | 4.6% | 3.47% | 2.99% | 3.33% | 5.2% | 2.89% | 2.55% | 0.21% | 0.95% | 3.6% | 3.58% | 0.48% |
| Fc1ccc(-c2ncn(C3CCNCC3)c2-c2ccnc(Oc3ccc(Cl)cc3)n2)cc1 |  | 0.53% | 0.56% | -3.24% | -3.38% | 21.7% | 30% | 0.86% | -0.77% | 0.37% | 1.32% | 2.83% | 4.47% | 1.99% | 2.51% | 2.75% | 0.75% | 1.08% | 2.02% | 1.24% |
| Cc1cccc(Oc2nccc(-c3c(-c4ccc(F)cc4)ncn3C3CCNCC3)n2)c1C | 11.5% | -1.03% | 2.47% | 5.06% | 4.26% | 41.4% | 46.3% | 4.26% | 5.13% | 2.67% | 4.11% | 5.07% | 4.62% | 1.17% | 1.26% | -1.94% | 1.21% | 3.59% | 4.89% | -1.52% |
| O=C1NC(=O)C(c2ccccc2Cl)=C1Nc1cc(Cl)c(O)c(Cl)c1 | 4.61% | 0.87% | -0.88% | 1.89% | 2.62% | 1.73% | 4.25% | -0.68% | 6.23% | 0.15% | 1.48% | 2.15% | 4.51% | 3.53% | 8.39% | 4.98% | -0.74% | 2.18% | 4.62% | 2.01% |
| O=C1NC(=O)C(c2cccc([N+](=O)[O-])c2)=C1Nc1cc(Cl)c(O)c(Cl)c1 | 1.81% | -0.59% | 1.71% | 0.37% | 0.31% | 1.45% | 1.9% | -0.59% | 6.69% | 2.11% | 6.06% | -2.15% | -3.64% | 1.73% | 3.09% | 2.79% | -1.88% | 1.11% | 6.27% | 1.49% |
| O=C(O)c1ccc(Oc2nccc(-c3c(-c4ccc(F)cc4)ncn3C3CCNCC3)n2)cc1 | 7.15% | 0.12% | 2.05% | 3.56% | 5.11% | 13.3% |  | 1.78% | 4.41% | 2.12% | 2.33% | 4.49% | 11.4% | 4.3% | 2.69% | 2.78% | 2.25% | 1.28% | 3.37% | 1.37% |

Source: ChEMBL document CHEMBL1961873, “Compounds: GSK PKIS; Assays: Nanosyn kinase panel” (2012)
